Experimental data as given in PubChem BioAssay AID360 (National Center for Advancing Translational Sciences (NCATS), 2006).
Out of some 48,000 compounds screened, about 550 (1.1%) were called active. Inconclusive results (about 4%) are left out. Rule as the data show it: active = potency below about 15 µM; inconclusive = mostly about 16 µM to 33 µM; inactive = weaker than that. Some of the results follow.

Target: Lysosomal acid glucosylceramidase (Homo sapiens) (UniProt P04062)
Assay: Glucocerebrosidase;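 also: the screen sought inhibitors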
Conditions: purified enzyme, resorufin glucoside fluorescence (screen aimed at inhibitors), 20 min
Outline: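 Normal human glucocerebrosidase (0.2 nM final) was assayed with resorufin β-D-glucopyranoside (30 uM final) in 50mM citric acid/KH2PO4, 10mM sodium taurocholate, 0.01% tween-20, pH 5.9. Compounds were titrated; fluorescence (Ex 548, Em 600) read after 20 min at RT.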
Potency is read from the fitted curve at half-maximal effect.

Chain of UniProt P04062 (P04062 whole entry, looked up): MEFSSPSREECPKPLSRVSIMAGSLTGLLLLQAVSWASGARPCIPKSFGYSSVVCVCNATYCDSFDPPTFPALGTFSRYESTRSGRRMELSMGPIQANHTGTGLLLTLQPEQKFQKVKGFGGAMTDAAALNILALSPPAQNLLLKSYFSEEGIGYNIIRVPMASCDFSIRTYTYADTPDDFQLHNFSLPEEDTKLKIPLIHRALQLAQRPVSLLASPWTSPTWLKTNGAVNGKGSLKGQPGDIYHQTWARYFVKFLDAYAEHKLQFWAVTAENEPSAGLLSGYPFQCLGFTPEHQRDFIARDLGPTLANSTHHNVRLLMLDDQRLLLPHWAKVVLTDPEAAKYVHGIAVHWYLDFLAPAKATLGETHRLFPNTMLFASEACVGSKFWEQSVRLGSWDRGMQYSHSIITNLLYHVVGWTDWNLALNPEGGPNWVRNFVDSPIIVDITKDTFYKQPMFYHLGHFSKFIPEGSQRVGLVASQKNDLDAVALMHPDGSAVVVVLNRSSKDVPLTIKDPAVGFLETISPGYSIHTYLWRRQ

Potency, inactive:
CC1CCCCC1NC(=O)C1CCN(S(=O)(=O)N2CCC3(CC2)OCCO3)CC1 (configuration not stated) > 76.9 µM
COc1ccc(CNC(=O)CSc2nnc(-c3ccc(NC(C)=O)cc3)n2C)cc1 > 76.9 µM
COc1ccc(N2CCN(C(=O)C(CCSC)N=C3NS(=O)(=O)c4ccccc43)CC2)cc1 (configuration not stated) > 76.9 µM
O=C1CC(Cc2ccc(Cl)cc2)C(=O)N1c1ccccn1 (configuration not stated) > 76.9 µM
COc1cc(C(=O)NCCC(=O)NCCCN2CCCCC2C)cc(OC)c1OC (configuration not stated) > 76.9 µM
CC1Cc2ccccc2N1C(=O)c1cc2c(=O)n3ccccc3nc2n1C (configuration not stated) > 76.9 µM
COC(=O)c1c(NC(=O)CN2CCN(c3ccccc3OC)CC2)c2cc(C)ccc2n1C > 76.9 µM
Cc1ccc(OC(C)c2nnc(N)s2)cc1Cl (configuration not stated) > 76.9 µM
CCCS(=O)(=O)N1CCC(C(=O)NC2CCCCC2C)CC1 (configuration not stated) > 76.9 µM
CCOC(=O)c1ccc(NC(=O)CSc2nnnn2CCCO)cc1 > 76.9 µM
COc1ccc(Cn2c(C3CC3)nc3ccc(NC(C)=O)cc3c2=O)cc1 > 76.9 µM
CCOc1nc2ccccc2nc1NS(=O)(=O)c1ccccc1 > 76.9 µM
Cc1cccc(C)c1NC(=O)Cn1nnc(-c2ccc(N3CCOCC3)cc2)n1 > 76.9 µM
CS(=O)(=O)NCCSCc1ccccc1 > 76.9 µM
CC1CC(C(F)(F)C(F)(F)F)n2nc(C(=O)O)cc2N1 (configuration not stated) > 76.9 µM
Cc1ccc2[nH]c(=O)c(CN(CC3CCCO3)S(=O)(=O)c3cccc4nsnc34)cc2c1 (configuration not stated) > 76.9 µM
O=C(Cn1cnc2c(oc3ccccc32)c1=O)NCc1ccco1 > 76.9 µM
Cc1oc(-c2ccc(Cl)cc2)nc1CN1CCC(C(=O)NCc2ccco2)CC1 > 76.9 µM
O=C(NC1CCCc2ccccc21)C1CCN(S(=O)(=O)c2cccc3nonc23)CC1 (configuration not stated) > 76.9 µM
OC(c1cccs1)c1nccc2ccccc12 (configuration not stated) > 76.9 µM
CCCn1c(SCC(=O)Nc2nccs2)nnc1-c1cccnc1 > 76.9 µM
CCOC(=O)C1CCN(Cc2cn[nH]c2-c2ccccc2)CC1 > 76.9 µM
CC(=O)Nc1ccc(NC(=O)C(C)Oc2ccccc2F)cc1 (configuration not stated) > 76.9 µM
COC(=O)c1cccc(NC(=O)CSc2nnc(COc3ccccc3)n2C)c1 > 76.9 µM
COCCNC(=O)NC(=O)COC(=O)C12CC3CC(CC(NC(C)=O)(C3)C1)C2 > 76.9 µM
CCC1(CC)NC(=O)N(CC(=O)OCC(=O)Nc2cc(C)ccc2C)C1=O > 76.9 µM
COc1ccccc1NC(=O)CSc1nnc(C2CCCCC2)o1 > 76.9 µM
O=c1[nH]c2cc3c(cc2cc1CN(CCc1ccccc1)Cc1nnnn1C1CCCC1)OCCO3 > 76.9 µM
C=CCn1c(SCC(=O)c2cc(C)n(Cc3cccs3)c2C)nnc1-c1ccncc1 > 76.9 µM
C=CCn1c(SCC(=O)Nc2ccc(N(C)C)cc2)nnc1-c1cccc(C)c1 > 76.9 µM
CC(CC(=O)O)CC1=NS(=O)(=O)c2ccccc2N1 (configuration not stated) > 76.9 µM
CC(=O)N1CCN(c2ccc(Oc3ncnc4sccc34)cc2)CC1
COC(=O)c1ccccc1NC(=O)c1nc2nc(C)cc(C)n2n1 > 76.9 µM
COc1ccc(-n2nnnc2-c2cccnc2)cc1 > 76.9 µM
COc1ccc(O)c(-c2[nH]ncc2C(=O)c2ccccc2)c1 > 76.9 µM
O=S(=O)(c1ccc(F)cc1)N1CCN(c2ncnc3c2cnn3-c2ccccc2)CC1 > 76.9 µM
CCCCc1c(O)c2ccccc2[nH]c1=O > 76.9 µM
CC(C)Cc1n[nH]c(=O)[nH]1 > 76.9 µM
O=C(O)c1ccccc1NCc1ccncc1 > 76.9 µM
Cc1ccccc1OCCCC(=O)Nc1ccc2c(c1)OCO2 > 76.9 µM
COc1ccc(OC)c(N(CC(=O)NCc2cccnc2)S(C)(=O)=O)c1 > 76.9 µM
Cc1nnc(SCCCN2C(=O)c3ccccc3C2=O)o1 > 76.9 µM
CC1=C(C(=O)OCc2ccccc2)C(c2ccccn2)c2c(n(C)c(=O)n(C)c2=O)N1 (configuration not stated) > 76.9 µM
O=C(CSc1nnc(Cc2ccccc2)n1-c1cccc(Cl)c1)N1CCOCC1 > 76.9 µM
COc1ccccc1-c1cc(C(F)(F)F)nc(S(=O)(=O)CCCC(=O)N2CCCCC2C)n1 (configuration not stated) > 76.9 µM
CSc1cccc(NC(=O)CSc2nc3ccccc3o2)c1 > 76.9 µM
Cc1cc(C)n2nc(SCC(=O)c3cc(C)n(-c4cc(C)on4)c3C)nc2n1 > 76.9 µM
O=C1c2ccccc2C(=O)N1CC1c2ccccc2CCN1S(=O)(=O)c1cnc[nH]1 (configuration not stated) > 76.9 µM
CCn1c(CNc2ccc(C)cc2)nnc1SCC(=O)NCc1ccccc1 > 76.9 µM
CCn1cc(C(=O)NC2CCCC2)c(=O)c2cc(S(=O)(=O)N3CCOCC3)ccc21 > 76.9 µM
O=C(OCC(=O)N1CCCCCC1)c1n[nH]c(=O)c2ccccc12 > 76.9 µM
CN(CCc1ccccn1)S(=O)(=O)c1ccc(F)cc1 > 76.9 µM
COc1ccc(OC)c(S(=O)(=O)NCCC2=CCCCC2)c1 > 76.9 µM
CCOC(=O)CC(Nc1nc(N2CCOCC2)nc(N2CCOCC2)n1)c1ccccc1Cl (configuration not stated) > 76.9 µM
CN(C)S(=O)(=O)c1ccc(S(=O)(=O)N(Cc2ccco2)Cc2ccccc2Cl)cc1 > 76.9 µM
Cc1cc(-c2ccccc2)n(-c2ccc(C(=O)N3CCN(c4ncccn4)CC3)cc2)n1 > 76.9 µM
Nc1nc(N)nc(-c2ccccc2)n1 > 76.9 µM
